Laboratory results as given in patent US9988430B2, “Stable GLP-1 based GLP-1/glucagon receptor co-agonists” (Novo Nordisk A/S, priority 2014, dated 2018).
At least one compound was matched to its structure with a doubt left. *1 amine or outer side, *2 acyl side, *3 side chain or, on linkers, in order; H or OH if unused. Where a SMILES comes first, the peptide text is derived from it. Side-chain parts run from the residue outwards. [ ]: non-standard residue; d: D form. The star is where a group is joined. C18 diacid = O=C(O)CCCCCCCCCCCCCCCCC(=O)*; γGlu = O=C(O)[C@H](CCC(=O)[*:2])N[*:1]; Desaminohistidyl = O=C(CCc1c[nH]cn1)*; AEEA = NCCOCCOCC(=O)O; Aib = CC(C)(N)C(=O)O

Experiment: Assay (III): ThT fibrillation assay for physical stability
Type: physicochemical
Conditions: pH 7.5, 10 mM HEPES buffer, 37° C., shaking 960 rpm
Excerpt: Assay (III): ThT Fibrillation Assay for the Assessment of Physical Stability of Peptide Compositions
The purpose of this assay is to assess the physical stability of the GLP-1 derivatives of the invention in aqueous solutions.
Low physical stability of a peptide may lead to amyloid fibril formation, which is observed as well-ordered, thread-like macromolecular structures in the sample, which eventually may lead to gel formation. This has traditionally been measured by visual inspection of the sample. However, that kind of measurement is very subjective and depending on the observer. Therefore, the application of a small molecule indicator probe is much more advantageous. Thioflavin T (ThT) is such a probe and has a distinct fluorescence signature when binding to fibrils [Naiki et al. (1989) Anal. Biochem. 177, 244-249; LeVine (1999) Methods. Enzymol. 309, 274-284].
The time course for fibril formation can be described by a sigmoidal curve with the following expression [Nielsen et al. (2001) Biochemistry 40, 6036-6046]:
Here, as depicted in FIG. 1, F is the ThT fluorescence at the time t. The constant t0 is the time needed to reach 50% of maximum fluorescence. The two important parameters describing fibril formation are the lag-time calculated by t0−2τ and the apparent rate constant kapp 1/τ.
Samples were prepared freshly before each assay. Each sample composition is described in the legends. The pH of the sample was adjusted to the desired value using appropriate amounts of concentrated NaOH and HCl. Thioflavin T was added to the samples from a stock solution in H2O to a final concentration of 1 μM.
Sample aliquots of 200 μl (250 pM of the GLP-1 derivative in 10 mM HEPES buffer, pH 7.5) were placed in a 96 well microtiter plate (Packard OptiPlate™-96, white polystyrene). Usually, four or eight replica of each sample (corresponding to one test condition) were placed in one column of wells. The plate was sealed with Scotch Pad (Qiagen).
Incubation at given temperature, shaking and measurement of the ThT fluorescence emission were done in a Fluoroskan Ascent FL fluorescence platereader (Thermo Labsystems). The temperature was adjusted to 37° C. The plate was incubated with orbital shaking adjusted to 960 rpm with an amplitude of 1 mm. Fluorescence measurement was done using excitation through a 444 nm filter and measurement of emission through a 485 nm filter.
Each run was initiated by incubating the plate at the assay temperature for 10 min. The plate was measured every 20 minutes for a desired period of time. Between each measurement, the plate was shaken and heated as described.
After completion of the ThT assay the four or eight replica of each sample was pooled and centrifuged at 20000 rpm for 30 minutes at 18° C. The supernatant was filtered through a 0.22 μm filter and an aliquot was transferred to a HPLC vial.
The concentration of peptide in the initial sample and in the filtered supernatant was determined by reverse phase HPLC using an appropriate standard as reference. The percentage fraction the concentration of the filtered sample constituted of the initial sample concentration was reported as the recovery.
The measurement points were saved in Microsoft Excel format for further processing and curve drawing and fitting was performed using GraphPad Prism. The background emission from ThT in the absence of fibrils was negligible. The data points are typically a mean of four or eight samples and shown with standard deviation error bars. Only data obtained in the same experiment (i.e. samples on the same plate) are presented in the same graph ensuring a relative measure of fibrillation between experiments.
The data set may be fitted to Eq. (1).

Row | Structure (SMILES) | ThT assay pH 7.5: Lag time
1 | CC[C@H](C)[C@H](NC(=O)[C@H](Cc1ccccc1)NC(=O)[C@H](CCC(=O)O)NC(=O)[C@H](CCCNC(=N)N)NC(=O)[C@H](C)NC(=O)[C@H](C)NC(=O)[C@H](CCC(N)=O)NC(=O)[C@H](C)NC(=O)[C@H](CCC(=O)O)NC(=O)[C@H](CC(C)C)NC(=O)[C@H](Cc1ccc(O)cc1)NC(=O)[C@H](CCCCN)NC(=O)[C@H](CO)NC(=O)[C@@H](NC(=O)[C@H](CC(=O)O)NC(=O)[C@H](CO)NC(=O)[C@@H](NC(=O)[C@H](Cc1ccccc1)NC(=O)[C@@H](NC(=O)CNC(=O)[C@H](Cc1c[nH]cn1)NC(=O)C(C)(C)NC(=O)CCc1c[nH]cn1)[C@@H](C)O)[C@@H](C)O)C(C)C)C(=O)N[C@@H](C)C(=O)N[C@@H](Cc1c[nH]c2ccccc12)C(=O)N[C@@H](CC(C)C)C(=O)N[C@@H](CC(C)C)C(=O)N[C@@H](CCCCNC(=O)CC[C@H](NC(=O)CC[C@H](NC(=O)COCCOCCNC(=O)CC[C@H](NC(=O)CC[C@H](NC(=O)CCCCCCCCCCCCCCCCC(=O)O)C(=O)O)C(=O)O)C(=O)O)C(=O)O)C(=O)N[C@H](C(N)=O)[C@@H](C)O [Example 34, N^ε34-[(4S)-4-carboxy-4-[[(4S)-4-carboxy-4-[[2-[2-[2-[[(4S)-4-carboxy-4-[[(4S)-4-carboxy-4-(17-carboxyheptadecanoylamino)butanoyl]amino]butanoyl]amino]ethoxy]ethoxy]acetyl]amino]butanoyl]amino]butanoyl]-[Imp7,Aib8,His9,Lys18,Ala22,Arg26,Leu33,Thr35]-GLP-1-(7-35)-peptide amide] (Desaminohistidyl-[Aib]HGTFTSDVSKYLEAQAAREFIAWLLK([γGlu-γGlu-AEEA-γGlu-γGlu-C18 diacid])T-NH2) | 45.0 h
2 | CC[C@H](C)[C@H](NC(=O)[C@H](Cc1ccccc1)NC(=O)[C@H](CCC(=O)O)NC(=O)[C@H](CCCNC(=N)N)NC(=O)[C@H](C)NC(=O)[C@H](C)NC(=O)[C@H](CCCCNC(=O)COCCOCCNC(=O)COCCOCCNC(=O)CC[C@H](NC(=O)CCCCCCCCCCCCCCCCC(=O)O)C(=O)O)NC(=O)CNC(=O)[C@H](CCC(=O)O)NC(=O)[C@H](CC(C)C)NC(=O)[C@H](Cc1ccc(O)cc1)NC(=O)[C@H](CCCCN)NC(=O)[C@H](CO)NC(=O)[C@H](Cc1ccc(O)cc1)NC(=O)[C@H](CC(=O)O)NC(=O)[C@H](CO)NC(=O)[C@@H](NC(=O)[C@H](Cc1ccccc1)NC(=O)[C@@H](NC(=O)CNC(=O)[C@H](Cc1c[nH]cn1)NC(=O)C(C)(C)NC(=O)CCc1c[nH]cn1)[C@@H](C)O)[C@@H](C)O)C(=O)N[C@@H](C)C(=O)N[C@@H](Cc1c[nH]c2ccccc12)C(=O)N[C@@H](CC(C)C)C(=O)N[C@@H](CC(C)C)C(=O)N[C@@H](CCCCN)C(=O)N[C@H](C(N)=O)[C@@H](C)O [Example 16, N^ε23-[2-[2-[2-[[2-[2-[2-[[(4S)-4-carboxy-4-(17-carboxyheptadecanoylamino)butanoyl]amino]ethoxy]ethoxy]acetyl]amino]ethoxy]ethoxy]acetyl]-[Imp7,Aib8,His9,Tyr16,Lys18,Lys23,Arg26,Leu33,Thr35]-GLP-1-(7-35)-peptide amide] (Desaminohistidyl-[Aib]HGTFTSDYSKYLEGK([AEEA-AEEA-γGlu-C18 diacid])AAREFIAWLLKT-NH2) | 45.0 h
